Laboratory results published in the supplement of paper PMC8728848.
The other results are listed elsewhere or left out.

Key:
Assay in all cases: glycan array binding signal (z-score within array); higher = stronger binding
Conditions in all cases: glycan notation: IUPAC condensed, linker removed
GlcNAc(b1-3)Gal(b1-4)Glc = biological target: GlcNAc(b1-3)Gal(b1-4)Glc
Summary of the method: (§1)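 The Consortium for Functional Glycomics database supplied 3228 glycan arrays, of which those lacking an available protein sequence were dropped. The binding signal, a within-array Z-score, was averaged across arrays of the same protein sequence and across linkers. Negative scores can be read as non-binding.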

[1] = biological target: GlcNAc(b1-3)Gal(b1-4)GlcNAc
Summary of the method: as §1

[2] = biological target: GlcNAc(b1-3)Gal(b1-4)GlcNAc(b1-2)Man(a1-3)[GlcNAc(b1-3)Gal(b1-4)GlcNAc(b1-2)Man(a1-6)]Man(b1-4)GlcNAc(b1-4)GlcNAc
Summary of the method: as §1

[3] = biological target: GlcNAc(b1-3)Gal(b1-4)GlcNAc(b1-2)Man(a1-3)[GlcNAc(b1-3)Gal(b1-4)GlcNAc(b1-2)Man(a1-6)]Man(b1-4)GlcNAc(b1-4)[Fuc(a1-6)]GlcNAc
Summary of the method: as §1

[4] = biological target: GlcNAc(b1-3)Gal(b1-4)GlcNAc(b1-2)[GlcNAc(b1-3)Gal(b1-4)GlcNAc(b1-6)]Man(a1-6)[GlcNAc(b1-3)Gal(b1-4)GlcNAc(b1-2)Man(a1-3)]Man(b1-4)GlcNAc(b1-4)GlcNAc
Summary of the method: as §1

[5] = biological target: GlcNAc(b1-3)Gal(b1-4)GlcNAc(b1-3)Gal(b1-4)GlcNAc
Summary of the method: as §1

[6] = biological target: GlcNAc(b1-3)Gal(b1-4)GlcNAc(b1-3)Gal(b1-4)GlcNAc(b1-2)Man(a1-3)[GlcNAc(b1-3)Gal(b1-4)GlcNAc(b1-3)Gal(b1-4)GlcNAc(b1-2)Man(a1-6)]Man(b1-4)GlcNAc(b1-4)GlcNAc
Summary of the method: as §1

[7] = biological target: GlcNAc(b1-3)Gal(b1-4)GlcNAc(b1-3)Gal(b1-4)GlcNAc(b1-2)Man(a1-3)[GlcNAc(b1-3)Gal(b1-4)GlcNAc(b1-3)Gal(b1-4)GlcNAc(b1-2)Man(a1-6)]Man(b1-4)GlcNAc(b1-4)[Fuc(a1-6)]GlcNAc
Summary of the method: as §1

[8] = biological target: GlcNAc(b1-3)Gal(b1-4)GlcNAc(b1-3)Gal(b1-4)GlcNAc(b1-2)[GlcNAc(b1-3)Gal(b1-4)GlcNAc(b1-3)Gal(b1-4)GlcNAc(b1-6)]Man(a1-6)[GlcNAc(b1-3)Gal(b1-4)GlcNAc(b1-3)Gal(b1-4)GlcNAc(b1-2)Man(a1-3)]Man(b1-4)GlcNAc(b1-4)[Fuc(a1-6)]GlcNAc
Summary of the method: as §1

[9] = biological target: GlcNAc(b1-3)Gal(b1-4)GlcNAc(b1-3)Gal(b1-4)GlcNAc(b1-3)Gal(b1-4)GlcNAc(b1-2)Man(a1-3)[GlcNAc(b1-3)Gal(b1-4)GlcNAc(b1-3)Gal(b1-4)GlcNAc(b1-3)Gal(b1-4)GlcNAc(b1-2)Man(a1-6)]Man(b1-4)GlcNAc(b1-4)GlcNAc
Summary of the method: as §1

[10] = biological target: GlcNAc(b1-3)Gal(b1-4)GlcNAc(b1-3)Gal(b1-4)GlcNAc(b1-3)Gal(b1-4)GlcNAc(b1-2)Man(a1-3)[GlcNAc(b1-3)Gal(b1-4)GlcNAc(b1-3)Gal(b1-4)GlcNAc(b1-3)Gal(b1-4)GlcNAc(b1-2)Man(a1-6)]Man(b1-4)GlcNAc(b1-4)[Fuc(a1-6)]GlcNAc
Summary of the method: as §1

[11] = biological target: GlcNAc(b1-3)Gal(b1-4)GlcNAc(b1-3)Gal(b1-4)GlcNAc(b1-3)Gal(b1-4)GlcNAc(b1-2)[GlcNAc(b1-3)Gal(b1-4)GlcNAc(b1-3)Gal(b1-4)GlcNAc(b1-3)Gal(b1-4)GlcNAc(b1-6)]Man(a1-6)[GlcNAc(b1-3)Gal(b1-4)GlcNAc(b1-3)Gal(b1-4)GlcNAc(b1-3)Gal(b1-4)GlcNAc(b1-2)Man(a1-3)]Man(b1-4)GlcNAc(b1-4)[Fuc(a1-6)]GlcNAc
Summary of the method: as §1

[12] = biological target: GlcNAc(b1-3)Gal(b1-4)GlcNAc(b1-3)Gal(b1-4)GlcNAc(b1-3)Gal(b1-4)GlcNAc(b1-3)Gal(b1-4)GlcNAc(b1-2)Man(a1-3)[GlcNAc(b1-3)Gal(b1-4)GlcNAc(b1-3)Gal(b1-4)GlcNAc(b1-3)Gal(b1-4)GlcNAc(b1-3)Gal(b1-4)GlcNAc(b1-2)Man(a1-6)]Man(b1-4)GlcNAc(b1-4)GlcNAc
Summary of the method: as §1

[13] = biological target: GlcNAc(b1-3)Gal(b1-4)GlcNAc(b1-3)Gal(b1-4)GlcNAc(b1-3)Gal(b1-4)GlcNAc(b1-3)Gal(b1-4)GlcNAc(b1-2)Man(a1-3)[GlcNAc(b1-3)Gal(b1-4)GlcNAc(b1-3)Gal(b1-4)GlcNAc(b1-3)Gal(b1-4)GlcNAc(b1-3)Gal(b1-4)GlcNAc(b1-2)Man(a1-6)]Man(b1-4)GlcNAc(b1-4)[Fuc(a1-6)]GlcNAc
Summary of the method: as §1

[14] = biological target: GlcNAc(b1-3)Gal(b1-4)GlcNAc(b1-3)Gal(b1-4)GlcNAc(b1-3)Gal(b1-4)GlcNAc(b1-3)Gal(b1-4)GlcNAc(b1-2)[GlcNAc(b1-3)Gal(b1-4)GlcNAc(b1-3)Gal(b1-4)GlcNAc(b1-3)Gal(b1-4)GlcNAc(b1-3)Gal(b1-4)GlcNAc(b1-6)]Man(a1-6)[GlcNAc(b1-3)Gal(b1-4)GlcNAc(b1-3)Gal(b1-4)GlcNAc(b1-3)Gal(b1-4)GlcNAc(b1-3)Gal(b1-4)GlcNAc(b1-2)Man(a1-3)]Man(b1-4)GlcNAc(b1-4)[Fuc(a1-6)]GlcNAc
Summary of the method: as §1

[15] = biological target: GlcNAc(b1-3)Gal(b1-4)GlcNAc(b1-3)Gal(b1-4)GlcNAc(b1-3)GalNAc
Summary of the method: as §1

[16] = biological target: GlcNAc(b1-3)Gal(b1-4)GlcNAc(b1-3)GalNAc
Summary of the method: as §1

[17] = biological target: GlcNAc(b1-3)Gal(b1-4)GlcNAc(b1-3)[GlcNAc(b1-3)Gal(b1-4)GlcNAc(b1-3)]GalNAc
Summary of the method: as §1

[18] = biological target: GlcNAc(b1-3)Gal(b1-4)GlcNAc(b1-6)[Gal(b1-3)]GalNAc
Summary of the method: as §1

[19] = biological target: GlcNAc(b1-3)Gal(b1-4)GlcNAc(b1-6)[GlcNAc(b1-3)Gal(b1-3)]GalNAc
Summary of the method: as §1

[20] = biological target: GlcNAc(b1-3)Gal(b1-4)GlcNAc(b1-6)[GlcNAc(b1-3)]Gal(b1-4)GlcNAc
Summary of the method: as §1

GlcNAc(b1-3)GalNAc = biological target: GlcNAc(b1-3)GalNAc
Summary of the method: as §1

GlcNAc(b1-3)Man = biological target: GlcNAc(b1-3)Man
Summary of the method: as §1

[21] = biological target: GlcNAc(b1-3)[GlcNAc(b1-4)][GlcNAc(b1-6)]GlcNAc
Summary of the method: as §1

[22] = biological target: GlcNAc(b1-3)[GlcNAc(b1-6)]Gal(b1-4)GlcNAc
Summary of the method: as §1

[23] = biological target: GlcNAc(b1-3)[GlcNAc(b1-6)]GalNAc
Summary of the method: as §1

[24] = biological target: GlcNAc(b1-4)Gal(b1-4)GlcNAc
Summary of the method: as §1

GlcNAc(b1-4)GlcNAc = biological target: GlcNAc(b1-4)GlcNAc
Summary of the method: as §1

[25] = biological target: GlcNAc(b1-4)GlcNAc(b1-4)GlcNAc
Summary of the method: as §1

[26] = biological target: GlcNAc(b1-4)GlcNAc(b1-4)GlcNAc(b1-4)GlcNAc(b1-4)GlcNAc
Summary of the method: as §1

[27] = biological target: GlcNAc(b1-4)GlcNAc(b1-4)GlcNAc(b1-4)GlcNAc(b1-4)GlcNAc(b1-4)GlcNAc
Summary of the method: as §1

[28] = biological target: GlcNAc(b1-4)[GlcNAc(b1-6)]GalNAc
Summary of the method: as §1

[29] = biological target: GlcNAc(b1-6)Gal(b1-4)GlcNAc
Summary of the method: as §1

GlcNAc(b1-6)GalNAc = biological target: GlcNAc(b1-6)GalNAc
Summary of the method: as §1

[30] = biological target: GlcNAc6S(b1-3)Gal(b1-4)GlcNAc
Summary of the method: as §1

Kdn(a2-3)Gal(b1-3)GalNAc = biological target: Kdn(a2-3)Gal(b1-3)GalNAc
Summary of the method: as §1

Kdn(a2-3)Gal(b1-3)GlcNAc = biological target: Kdn(a2-3)Gal(b1-3)GlcNAc
Summary of the method: as §1

B1: LecRKVI.2 (protein)
chain: RTTTNFAFRGFNGNQSKIRIEGAAMIKPDGLLRLTDRKSNVTGTAFYHKPVRLLNRNSTNVTIRSFSTSFVFVIIPSSSSNKGFGFTFTLSPTPYRLNAGSAQYLGVFNKENNGDPRNHVFAVEFDTVQGSRDDNTDRIGNDIGLNYNSRTSDLQEPVVYYNNDDHNKKEDFQLESGNPIQALLEYDGATQMLNVTVYPARLGFKPTKPLISQHVPKLLEIVQEEMYVGFTASTGKGQSSAHYVMGWSFSSGGERPIADVLILSELPPPPPNKAKKEGLNS
glycan array binding signal (z-score) (GlcNAc(b1-3)Gal(b1-4)Glc): -0.366
glycan array binding signal (z-score) [1]: -0.378
glycan array binding signal (z-score) [2]: -0.318
glycan array binding signal (z-score) [3]: -0.326
glycan array binding signal (z-score) [4]: -0.33
glycan array binding signal (z-score) [5]: -0.415
glycan array binding signal (z-score) [6]: -0.121
glycan array binding signal (z-score) [7]: -0.243
glycan array binding signal (z-score) [8]: -0.352
glycan array binding signal (z-score) [9]: -0.24
glycan array binding signal (z-score) [10]: -0.127
glycan array binding signal (z-score) [11]: -0.343
glycan array binding signal (z-score) [12]: -0.26
glycan array binding signal (z-score) [13]: -0.217
glycan array binding signal (z-score) [14]: -0.293
glycan array binding signal (z-score) [15]: -0.409
glycan array binding signal (z-score) [16]: -0.317
glycan array binding signal (z-score) [17]: -0.275
glycan array binding signal (z-score) [18]: -0.285
glycan array binding signal (z-score) [19]: -0.401
glycan array binding signal (z-score) [20]: -0.464
glycan array binding signal (z-score) (GlcNAc(b1-3)GalNAc): -0.337
glycan array binding signal (z-score) (GlcNAc(b1-3)Man): -0.381
glycan array binding signal (z-score) [21]: -0.429
glycan array binding signal (z-score) [22]: -0.338
glycan array binding signal (z-score) [23]: -0.399
glycan array binding signal (z-score) [24]: -0.256
glycan array binding signal (z-score) (GlcNAc(b1-4)GlcNAc): -0.232
glycan array binding signal (z-score) [25]: -0.408
glycan array binding signal (z-score) [26]: -0.311
glycan array binding signal (z-score) [27]: -0.345
glycan array binding signal (z-score) [28]: -0.38
glycan array binding signal (z-score) [29]: -0.104
glycan array binding signal (z-score) (GlcNAc(b1-6)GalNAc): -0.253
glycan array binding signal (z-score) [30]: 2.01
glycan array binding signal (z-score) (Kdn(a2-3)Gal(b1-3)GalNAc): -0.27
glycan array binding signal (z-score) (Kdn(a2-3)Gal(b1-3)GlcNAc): -0.309
